Each structure is given as a SMILES string. Out of some 340,000 compounds screened, about 6,900 (2%) were called active. Cut-off read from the data, not from the text of the source: active = inhibition above about 30%; inactive = below that, where a call was filed. Only a part is listed here, and it is no random draw. The source gives no active or inactive call for entries shown without one.

Results on 94 compounds are retold here after PubChem BioAssay AID485344 (National Center for Advancing Translational Sciences (NCATS), 2010).

For this assay, the target named is D(2) dopamine receptor (Homo sapiens) (UniProt P14416). As to the kind of experiment: HTS Assay for Allosteric Antagonists of the Human D2 Dopamine Receptor: Primary Screen for Antagonists. Note: 0% is about no effect. Particulars: HEK293 TREx D2 cells, calcium flux, dopamine EC80; at 10 µM; stronger effect = higher value. The gist of the method: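 Compounds are added to dye-loaded, induced HEK293 T-REx cells coupled to calcium release via D2; after a 3 min kinetic read an EC80 dopamine stimulus is given and fluorescence is recorded for 3 more min.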
Sequence of UniProt P14416 (P14416 whole entry, looked up): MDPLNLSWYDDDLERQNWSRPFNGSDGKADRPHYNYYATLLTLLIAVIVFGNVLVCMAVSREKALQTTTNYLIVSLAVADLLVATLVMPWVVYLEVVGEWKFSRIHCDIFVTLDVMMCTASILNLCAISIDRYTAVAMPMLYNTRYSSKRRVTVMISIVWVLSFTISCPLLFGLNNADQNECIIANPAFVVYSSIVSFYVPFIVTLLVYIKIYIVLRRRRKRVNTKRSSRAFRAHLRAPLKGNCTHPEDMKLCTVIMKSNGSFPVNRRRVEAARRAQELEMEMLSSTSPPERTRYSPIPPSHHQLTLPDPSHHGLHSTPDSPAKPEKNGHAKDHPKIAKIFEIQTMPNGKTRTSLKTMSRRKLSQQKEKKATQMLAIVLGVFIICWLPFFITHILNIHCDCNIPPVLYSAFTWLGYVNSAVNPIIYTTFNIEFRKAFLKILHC
(In general: A change in cytosolic calcium serves as a functional read-out for many receptors and channels.)
Regarding `COc1ccc(-c2cc(C(=O)O)n(Cc3ccccc3)n2)cc1`, the inhibition was -22.3%.
The result for `COc1ccc(C(=O)NC2(C(F)(F)F)C(=O)NC(C)=C2C#N)cc1OC` (centres undefined) reads -4.29%.
With `CCC(=O)N1CCc2cc(Br)cc(S(=O)(=O)N3CCC(C(=O)Nc4ccc(OC)cc4)CC3)c21` the figure was 18.6%.
The result for `COc1ccc(NC(=O)CSc2nc(-c3cccs3)cc(C(F)(F)F)n2)cc1OC` reads -12.3%.
For `O=C(CSc1nc2ccccc2nc1Cc1ccccc1)NCc1ccccc1Cl`, the inhibition came out at 7.55%.
The result for `Cc1cc(C)c(NC(=O)Cn2c(=O)n(CC(=O)NCc3ccccc3Cl)c(=O)c3sccc32)c(C)c1` reads 14.5%; that for `CCc1ccc(CNC(=O)C2CCCN(c3nc4ccccc4o3)C2)cc1` (centres undefined), active: 39.6%; that for `CC(=O)c1cc2c(cc1N/C(=N/S(=O)(=O)c1ccc(C)cc1)c1ccccc1)OCO2`, 12%.
Turning to `COC(=O)c1ccc(NC(=O)CCS(=O)(=O)c2ccc(Br)cc2)cc1`, the inhibition was determined as 13.4%.
With `CCOC(=O)c1c(NC(=O)/C=C/c2ccc(OCC)cc2)sc(C)c1C` the figure was 1.31%; with `COC(=O)C(NC(=O)CC(C)C)(Nc1nc2c(s1)CCCC2)C(F)(F)F` (centres undefined), -4.78%; with `CCOc1ccc(N2CC(NC(=O)CCc3ccccc3)CC2=O)cc1` (centres undefined), -23.7%.
For `Cc1ccc(C)c(N2CCN(C(=O)c3ccc(NC(=O)c4nsc5ccccc45)cc3)CC2)c1`, the inhibition was -6.29%.
The result for `CCc1ccccc1NC(=O)Nc1c[nH]c(=O)[nH]c1=O` reads 2.82%.
As for `COc1cc(C(=O)Oc2c(Sc3ccccc3)c(C)nn2-c2ccccc2)cc(OC)c1OC`, the inhibition is 0.513%.
In the case of `Cc1ccc(/C=C/c2onc(C)c2S(=O)(=O)N2CCC(C(=O)Nc3ccc(C)c(N(C)C)c3)CC2)cc1`, the inhibition was -5.51%.
With `Cc1nnc(SCC(=O)NCCN2C(=O)CSC2=O)n1-c1ccccc1` the figure was active: 46.7%; with `Cc1ccc(CNC(=O)CCCCCn2c(=O)[nH]c3ccccc3c2=O)cc1`, 2.74%; with `Cc1nn(-c2ccccc2)c(OC(=O)C(C)C)c1Sc1ccc(Cl)cc1`, 7.12%.
As to `CC(=O)c1cccc(-n2c(=O)c3c4c(sc3n(CC(=O)c3ccccc3)c2=O)CN(C(C)=O)CC4)c1`, the inhibition was -1.62%.
With `Cc1nc(C)c(-c2ccc(SCC(=O)Nc3ccc(Br)cc3)nn2)s1` the figure was 4.01%; with `Cc1ccc(C)c(CN2C(=O)c3ccccc3S(=O)(=O)c3ccc(C(=O)N(C)C4CCCCC4)cc32)c1`, -18.2%.
The result for `CC(=O)c1cc2c(cc1N/C(=N/S(=O)(=O)c1ccc(Cl)cc1)c1ccc(F)cc1)OCO2` reads -3.66%; that for `CCn1c(C)c(C2N3CC4(C)CN2CC(C)(C3)C4=O)c2ccccc21` (centres undefined), 5.82%; that for `CCc1nnc(NC(=O)CSc2nccn2-c2ccc(OC)cc2)s1`, -10.8%.
With `CSc1ccc(CCNC(=O)c2cnc3c(C)cccn3c2=O)cc1` the figure was 16.2%; with `COc1cc(CNCc2ccccc2)c(Br)cc1OC1CCCC1`, active: 50.9%; with `COc1ccc(NC(=O)c2cc(S(=O)(=O)N3CCOCC3)cn2C)c(OC)c1`, active: 41%.
Take `CCOC(=O)Cn1c(=O)n(CC2CCCO2)c2nc(-c3ccc(C)cc3)nc(C(N)=O)c21` (centres undefined): the inhibition stood at 21.9%.
The result for `CC(=O)c1ccc(S(=O)(=O)N2CCn3cccc3C2c2ccc(C)cc2)cc1` (centres undefined) reads 19.8%.
Turning to `O=C1C2CCCN2C(=O)N1CCCCN1CCN(c2cccc(C(F)(F)F)c2)CC1` (centres undefined), the inhibition is active: 106%.
The result for `Cc1ccc2nc3c(cc(C(=O)NCC4CCCO4)c(=N)n3C(C)C)c(=O)n2c1` (centres undefined) reads 11.3%; that for `COc1ccccc1NC(=O)C(=O)NCC(c1ccc2c(c1)OCO2)N1CCOCC1` (centres undefined), 13.3%.
As for `COc1ccccc1/C=C/c1nc2ccccc2n1C(C)C`, the inhibition was -11.4%.
The result for `COc1ccc(Cl)cc1NC(=O)Cc1ccc(NC(=O)N2CCCCc3ccccc32)cc1` reads 4.1%; that for `COc1ccc(CNC(=O)Cc2c(C)c3cc4c(C)coc4c(C)c3oc2=O)cc1`, -8.49%; that for `Cc1ccc(-c2noc(C(C)NS(=O)(=O)c3ccc(C)cc3)n2)cc1` (centres undefined), -22.6%.
Turning to `CN1C(=O)Cc2cc(S(=O)(=O)N3CCN(c4ccccc4F)CC3)ccc21`, the inhibition turned out to be 2.9%.
As for `O=C(Nc1cccc(Cl)c1)c1cnc2sc(N3CCCC3)nn2c1=O`, the inhibition is -7.65%.
For `Cc1ccc(C)c(CN2CCCN(Cc3ccc(F)cc3)S2(=O)=O)c1`, the inhibition was 0.406%.
With `O=C(NCc1ccco1)c1ccc2c(c1)C(=O)c1ccccc1-2` the figure was active: 30%.
Take `O=C1/C(=C/C=C/c2ccco2)SC(=S)N1NS(=O)(=O)c1ccccc1`: the inhibition was active: 41.7%.
As to `Cc1nc(-n2nc(C)c(Cc3ccccc3Cl)c2C)sc1C(=O)Nc1ccccc1F`, the inhibition was 10%.
`Fc1ccc(N2CCN(C3CCC(c4ccccc4)CC3)CC2)cc1` (centres undefined): the inhibition was active: 53.3%.
With `Cc1ccc(-n2c(Cc3ccccc3)nnc2SCc2nc(-c3cccs3)no2)cc1` the figure was 7.39%; with `O=c1c2cc3c(cc2n(Cc2ccc(Cl)cc2)c(=O)n1Cc1nc(-c2ccccc2)no1)OCO3`, -1.27%.
Consider `Cc1ccc(/C=C/c2onc(C)c2S(=O)(=O)N2CCC(C(=O)N3CCC(N(C)C(C)C)CC3)CC2)cc1`, for which the inhibition was found to be 1.41%.
The result for `CCOc1ccc(NC(=O)CCN2CCN(c3ccccc3)CC2)cc1` reads active: 83.2%.
`CCOC(=O)c1ccccc1NC(=O)CSc1nc2cn(CC)nc2c(=O)n1Cc1ccc(Cl)cc1`: the inhibition was 11.4%.
With `Cc1ccc2c(c1)c1c(c(=O)n(-c3cccc(Cl)c3)c(=O)n1CC(=O)Nc1c(C)cccc1C)n2C` the figure was -8.71%; with `Cc1ccc(CN2CCSc3ccc(C(=O)N4CCN(c5ccccc5)CC4)cc32)cc1`, -0.257%; with `COc1ccc(N2CCN(C(=O)C3CCN(S(=O)(=O)c4cccs4)CC3)CC2)cc1`, -27.6%.
The result for `COc1ccc(CNC(=O)C(=O)Nc2ccc(OC)cc2OC)cc1` reads 7.78%; that for `CCOC(=O)c1cnc2c(C)c(Cl)ccc2c1NCCc1ccccc1`, 17.8%; that for `O=C(Cn1cc(S(=O)(=O)Cc2cccc(Cl)c2)c2ccccc21)NCCc1ccccc1`, -4.07%.
With `Clc1cccc(-n2ncc3c(N4CCCCC4)ncnc32)c1` the figure was -12.2%; with `Cc1ccc(NC(=O)/C(C#N)=C/c2ccc(C(C)C)cc2)cc1C`, -11.2%; with `CCOc1ccccc1C(=O)NC1CC2CCCC(C1)N2Cc1ccc(C)cc1` (centres undefined), active: 83.8%.
On to `CC(=O)Nc1nonc1-c1nnc(SCC(=O)N(C)c2ccccc2)n1C`, for which the inhibition is -17.7%.
The result for `O=C(Cn1c(=O)nc(-c2ccccc2F)c2cc(Cl)ccc21)N1CCN(c2ccccc2F)CC1` reads 16.4%; that for `CCCCC(CC)CNC(=O)CN1C(=O)CSc2ccc(S(=O)(=O)N3CCOCC3)cc21` (centres undefined), 18.3%.
As to `CCOc1ccccc1N(CC)C(=O)c1cc2c(=O)[nH]c3ccc(C)cc3c2s1`, the inhibition was 2.77%.
In the case of `COC(=O)c1scc(-c2ccc(C)cc2)c1S(=O)(=O)Nc1cc(OC)c(OC)c(OC)c1`, the inhibition was -4.36%.
With `COc1ccc(CNC(=O)c2c3c(nc4ccccc24)C(=O)N(C2CCCCC2)C3)c(OC)c1` the figure was 11.8%.
With `CS(=O)(=O)Nc1cccc(C2=NN(S(=O)(=O)c3ccc(F)cc3)C(c3cccs3)C2)c1` (centres undefined) the figure was active: 31.2%; with `C=C(C)CSc1nc2sc3c(c2c(=O)n1-c1ccccc1)CC(C(C)C)OC3` (centres undefined), 0.817%; with `CCC1CN(C(=O)N2CCC(C(=O)NCc3cccc(C)c3)CC2)c2ccccc2O1` (centres undefined), 4.61%.
The result for `COc1ccc(Cn2c(SCc3ccc(C(=O)NC(C)C)cc3)nc3cccnc32)cc1` reads 7.55%; that for `CCc1ccc(CNC(=O)c2ccc(NC(=O)N3CCCCc4ccccc43)cc2)cc1`, 6.22%.
In the case of `COc1ccccc1NC(=O)c1cccc(S(=O)(=O)N2CCCCCC2)c1`, the inhibition is -17%.
As for `Cc1c(Cl)cccc1NC(=O)Nc1nnc(N2CCCCCC2)s1`, the inhibition was -11.7%.
The result for `Cc1ccc(C(=O)Nc2cccc(C(=O)O)c2)cc1S(=O)(=O)N1CCCC1` reads -9.02%; that for `Cc1c(NS(=O)(=O)c2ccc(NC(=O)CCC(=O)O)cc2)c(=O)n(-c2ccccc2)n1C`, active: 30.1%.
Regarding `CSc1cccc(Nc2nc3c(S(=O)(=O)c4ccccc4)nnn3c3ccc(Cl)cc23)c1`, the inhibition was -1.11%.
`O=C(Cn1ncc2ccc(Cl)cc21)NCc1ccc(F)cc1`: the inhibition is 20.6%.
The result for `O=C1CN(C(=O)COc2ccc(Cl)cc2Cl)c2ccccc2N1` reads active: 30.2%; that for `O=C(c1ccc2c(c1)N(Cc1ccc(F)cc1)C(=O)c1ccccc1S2=O)N1CCC(Cc2ccccc2)CC1` (centres undefined), -3.56%.
The result for `COc1ccc(-c2[nH]ncc2C(=O)NCc2ccccc2C)cc1` reads -2.21%.
The result for `CC(=O)N1CCCc2cc(S(=O)(=O)N3CCC(C(=O)NCc4ccc(C)cc4)CC3)ccc21` reads 3.26%; that for `COC(=O)c1ccccc1NC(=O)Cn1c(=O)n(-c2cccc(OC)c2)c(=O)c2c(C)c(C(=O)N(C)C)sc21`, -2.19%.
`Cc1onc(-c2ccccc2Cl)c1C(=O)Oc1cc(F)cc(F)c1`: the inhibition was determined as 16%.
With `Cc1ccc(CCNC(=O)Cn2nc(-c3ccc(C)cc3)ccc2=O)cc1` the figure was 15.3%; with `CCN(CC)CCNC(=O)c1cn(CC)c2ccc(S(=O)(=O)N3CCOCC3)cc2c1=O`, 5.41%; with `O=C(Nc1ccc(O)cc1C(=O)O)c1ccc(NC(=O)c2ccco2)cc1`, active: 45.8%.
The result for `CC(=O)Nc1cccc(NC(=O)C(=O)NCCc2sc(-c3ccccc3)nc2C)c1` reads 11.9%; that for `COc1ccc(OCC(=O)OCc2cc(=O)n3nc(C4CCCCC4)sc3n2)cc1`, 5.4%.
The result for `COc1ccc(N2CCN(C(=O)c3cn(CC(C)C)c(=O)c4c3c3ccccc3n4C)CC2)cc1` reads -11.7%.
Turning to `CCc1ccc(-c2nn(CC(=O)Nc3ccccc3)c3c2cnc2ccc(F)cc23)cc1`, the inhibition was found to be 6.98%.
As to `CC(C)(C)C1CCc2c(sc(NC(=O)Cn3nnc(-c4ccccc4F)n3)c2C#N)C1` (centres undefined), the inhibition is 7.09%.
The result for `CCOc1ccc(N(C(=O)Cn2nnc3ccccc32)C(C(=O)NCc2ccccc2)c2ccc(OC)cc2)cc1` (centres undefined) reads -3.32%; that for `CCOC(=O)c1cc(-c2ccccc2)n(-c2cccc(C(=O)Nc3ccc(OC)cc3)c2)c1C`, -4.29%; that for `O=C(CSCc1ccccc1Cl)N1CCN(c2ccc(F)cc2)CC1`, 0.596%.
For the compound `CN1C(C(=O)Nc2ccc(F)cc2F)=CC(c2ccco2)=NS1(=O)=O`, the inhibition came out at 14.5%.
As for `Cc1cccc(C)c1NC(=O)c1oc2ccc3c(c2c1C)C(=O)CC(C)(C)O3`, the inhibition was -1.67%.

The inhibition is the drop in the measured response relative to a control, in per cent.
